Experimental data as given in PubChem BioAssay (NCI).
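How tested: cells in 96-well plates exposed to compound for 48 hours at five concentrations. GI50 = concentration required for 50% inhibition of growth. At the TGI there is no net growth.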

Test system: NCI-H322M lung
Assay: inhibition of tumour cell growth, NCI panel, 48 h

## CS(=O)(=O)c1nccc(-c2c(-c3ccc(F)c(OCc4ccc(F)cc4)c3)nc3sccn23)n1
  GI50: 14.6 µM
  TGI: 28 µM
